# Laboratory results published in PubChem BioAssay AID1468 (National Center for Advancing Translational Sciences (NCATS), 2008).
# In all, about 280,000 compounds went through this assay and about 1,100 (0.39%) were called active. Inconclusive means that the source gave no clear call. Such entries were picked first, then a sample of the others. The call rests on the fitted dose curve; in most records, active means well fitted inhibition curve with a large enough effect; inconclusive means small, poorly fitted or top-dose-only effect, or effect the other way; inactive means flat fitted curve, though single readings scatter. No potency is given beside an inconclusive call; the fits are too rough.
# Molecular target: Microtubule-associated protein tau (Homo sapiens) (UniProt P10636)
# Test: qHTS for Inhibitors of Tau Fibril Formation, Fluorescence Polarization; further: nearly all actives have a fitted effect of over 55% in size
# Details: K18 P301L tau heparin fibrillization, Alexa594 FP, 6 h; series mostly up to 57.7 µM; activity, negative = inhibition: at the top concentration
# Outline: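 K18 P301L tau (15 uM unlabeled/0.24 uM Alexa 594-labeled, final) + compound + heparin 20 uM final; 100 mM NaOAc pH 7; 6 hr 37 C; ThT 30 uM final added, 1 hr RT; FP ex 555/em 632 nm.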
# On the % scale 0 is the no-effect control and ±100 the full control effect; potency means the concentration at half of the fitted maximal effect; tags describe the fitted curve by direction and shape.
# UniProt P10636, sequence (P10636 whole entry, looked up): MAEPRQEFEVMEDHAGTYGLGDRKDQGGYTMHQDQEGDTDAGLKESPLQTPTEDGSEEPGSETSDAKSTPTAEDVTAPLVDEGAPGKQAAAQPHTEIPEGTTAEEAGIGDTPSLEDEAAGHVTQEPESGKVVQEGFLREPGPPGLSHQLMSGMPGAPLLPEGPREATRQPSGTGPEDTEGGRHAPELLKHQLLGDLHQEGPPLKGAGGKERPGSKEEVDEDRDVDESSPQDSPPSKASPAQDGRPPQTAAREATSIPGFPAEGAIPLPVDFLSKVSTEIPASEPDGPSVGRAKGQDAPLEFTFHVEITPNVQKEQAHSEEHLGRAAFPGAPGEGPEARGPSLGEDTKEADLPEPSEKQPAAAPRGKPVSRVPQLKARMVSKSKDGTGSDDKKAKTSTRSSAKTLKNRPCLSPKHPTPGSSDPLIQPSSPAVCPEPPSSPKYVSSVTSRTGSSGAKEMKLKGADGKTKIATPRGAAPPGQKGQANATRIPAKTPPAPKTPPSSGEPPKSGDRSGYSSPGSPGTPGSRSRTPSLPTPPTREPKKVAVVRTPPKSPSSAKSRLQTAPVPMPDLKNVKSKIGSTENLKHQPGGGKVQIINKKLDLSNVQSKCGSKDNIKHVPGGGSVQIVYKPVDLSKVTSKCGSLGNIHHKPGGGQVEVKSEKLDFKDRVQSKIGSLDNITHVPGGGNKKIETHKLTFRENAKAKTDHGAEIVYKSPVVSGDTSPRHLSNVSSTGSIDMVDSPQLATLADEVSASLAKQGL
SMILES,Potency,"activity, negative = inhibition"
O=C(Nc1ccc(F)cc1)c1oc2ccccc2c1NC(=O)C12CC3CC(CC(C3)C1)C2,"inconclusive [inhibitor, partial curve]",
COc1ccc(-c2cn3c(n2)sc2cc(C(=O)Nc4ccc(C)c(C)c4)ccc23)cc1,,inactive: -1.3%
O=C(Cc1ccccc1)N(Cc1cccnc1)c1nc2c(F)cc(F)cc2s1,,inactive: -11.8%
N#Cc1c(-c2ccccc2)c(-c2ccccc2)nn(CC(=O)NNC(=O)Nc2ccc(Cl)c(Cl)c2)c1=O,"inconclusive [inhibitor, partial curve]",
Cc1ccc(NC(=O)COC(=O)c2cccc(N3C(=O)c4ccccc4C3=O)c2)cc1,"inconclusive [inhibitor, single point]",
COC(=O)c1ccccc1NC(=O)C1=CC(c2ccc(C)cc2)=NS(=O)(=O)N1C,"inconclusive [inhibitor, single point]",
N#Cc1ccc(-c2cccnc2)nc1SCc1ccc(Cl)cc1Cl,"inconclusive [inhibitor, partial curve, poor fit]",
CCOC(=O)C1CCN(Cc2ccc(O)c(OC)c2)CC1,,inactive: 4.73%
Nc1c(NCc2ccccc2F)c(=O)[nH]c(=O)n1Cc1ccccc1,"inconclusive [inhibitor, single point]",
Cc1cc(C)cc(NC(=O)CN(c2cc(C(F)(F)F)ccc2Cl)S(=O)(=O)c2ccccc2)c1,"inconclusive [inhibitor, partial curve]",
Cn1c(SCc2ccccc2)nnc1-c1ccco1,,inactive: 3.38%
O=[N+]([O-])c1cc(/C=N/NC(=S)Nc2ccccc2Cl)ccc1Cl,"inconclusive [inhibitor, partial curve]",
O=C(Nc1ccc2nc[nH]c2c1)c1ccco1,"inconclusive [inhibitor, single point]",
CN1CCN(C2=Cc3ccccc3Sc3cc(F)ccc32)CC1,"inconclusive [activator, single point]",
Cc1cccc(NC(=O)C2C3CCC4C(CCC32)C4(Cl)Cl)c1 (stereo unspecified),,inactive: 0.952%
CN(c1ccccc1)S(=O)(=O)c1ccc(NC(=O)c2cccs2)cc1,"inconclusive [inhibitor, partial curve]",
COC(=O)CN1C(=S)N(c2ccc(Cl)cc2)C(=O)C1CC(=O)Nc1ccc(Cl)cc1 (stereo unspecified),"inconclusive [inhibitor, partial curve]",
O=C(Cn1c(SCc2cccc(F)c2)nc2cccnc21)Nc1ccc(F)c(Cl)c1,"inconclusive [inhibitor, partial curve]",
OC(CN1CCN(c2ccccn2)CC1)Cn1c2ccc(Cl)cc2c2cc(Cl)ccc21 (stereo unspecified),"inconclusive [inhibitor, partial curve]",
CC(=O)c1ccc(NC(=O)CCc2c(C)nc3c(c(C)nn3-c3ccc(C)cc3)c2C)cc1,"inconclusive [inhibitor, full curve, poor fit]",
CC(=O)Nc1ccc(S(=O)(=O)N2CCN(c3cccc(C)c3C)CC2)cc1,"inconclusive [inhibitor, partial curve]",
O=C(COc1ccccc1Cl)Nc1cc(-c2ccccc2F)nn1-c1ccccc1,,inactive: -8.72%

SMILES,Potency,"activity, negative = inhibition"
COC(=O)c1ccc(C(NC(=O)OCc2ccccc2)/C(=C/[C@@H](C)C(=O)NCc2ccc(OC)c(O)c2)c2cccnc2)cc1 (stereo partly specified),,inactive: 5.33%
CSc1cccc(NC(=S)N2CCCN(Cc3ccc(F)cc3)C2)c1,"inconclusive [inhibitor, single point]",
CC(=O)N1CCN(c2ccc(NCc3ccc(F)cc3)cc2)CC1,"inconclusive [inhibitor, single point]",
COc1ccc(/C=N/Nc2ncnc3sc(C)c(C)c23)cc1,"inconclusive [activator, partial curve]",
COC(=O)CN(c1cccc(OC)c1)S(C)(=O)=O,"inconclusive [inhibitor, partial curve, poor fit]",
COc1ccc(NC(=O)Nc2ccc(F)c(Cl)c2)cc1,"inconclusive [activator, partial curve]",
Cc1cc(C)c(C(=O)COC(=O)c2ccc(NC(=O)CC#N)cc2)cc1C,"inconclusive [inhibitor, single point]",
COc1ccc(-c2nc3c(c4nnc(SC(C)C(=O)Nc5ccccc5)n24)COC(C)(C)C3)cc1 (stereo unspecified),"inconclusive [inhibitor, single point]",
COc1cccc(C2=C(C(C)=O)Sc3nncn3N2C(C)=O)c1,"inconclusive [inhibitor, partial curve]",
CCOC(=O)c1ccc(NC(=O)CCc2c(C)nc3c(c(C)nn3-c3ccccc3)c2C)cc1,"inconclusive [inhibitor, partial curve]",
CC1(C(=O)OCC(=O)c2c[nH]c3ccccc23)CC1(Cl)Cl (stereo unspecified),"inconclusive [inhibitor, single point]",
O=C(CCc1cn(Cc2ccc(F)cc2)c2ccccc12)NCCc1ccc(Cl)cc1,,inactive: -3.79%
CC(=O)N1CCOc2cc(S(=O)(=O)NC(C)c3ccccc3)c(Cl)cc21 (stereo unspecified),"inconclusive [inhibitor, single point]",
O=C(O)CSc1nnc(Cn2c(=O)sc3ccccc32)n1-c1cccc(Cl)c1,"inconclusive [inhibitor, single point]",
Cc1ccc(C(=O)NNc2cc(=O)n(C)c(=O)n2C)cc1C,"inconclusive [inhibitor, single point]",
CC1(C)Cc2nc3sc4c(SCC(=O)O)ncnc4c3cc2CO1,,inactive: -4.49%
COc1cccc(NC(=O)CSc2nc3ccc(NC(=O)c4cccs4)cc3s2)c1,active: 7.94 µM,
CCC(c1nnnn1CC1CCCO1)N(CCN1CCOCC1)Cc1cc2cc(C)ccc2[nH]c1=O (stereo unspecified),"inconclusive [inhibitor, partial curve]",
N#Cc1nc(-c2cccs2)oc1NCCc1ccccc1,"inconclusive [activator, partial curve, poor fit]",
Cc1ccc(S(=O)(=O)N(C)C)cc1NC(=O)COC(=O)c1sc2cc(Cl)ccc2c1Cl,"inconclusive [inhibitor, partial curve]",
CC(=O)Nc1ccc(NC(=O)c2ccc(NS(=O)(=O)c3cc(C(C)(C)C)cc(C)c3C)cc2)cc1,"inconclusive [inhibitor, partial curve]",
N=C1N(/N=C/c2ccccc2)C(=Nc2ccccc2)C(=S)N1c1ccccc1,"inconclusive [inhibitor, partial curve, poor fit]",

SMILES,Potency,"activity, negative = inhibition"
CSCC[C@H](NC(=O)[C@H](Cc1ccccc1)NC[C@@H](NC[C@@H](N)CS)C(C)C)C(=O)O,"inconclusive [inhibitor, partial curve]",
O=C(C1CCN(S(=O)(=O)c2cccc3cccnc23)CC1)N1CCN(c2ccccc2)CC1,,inactive: 6.11%
Nc1nc(-c2c[nH]c3ccccc23)cs1,"inconclusive [inhibitor, single point]",
Nc1ccccc1SSc1ccccc1N,"inconclusive [inhibitor, partial curve]",
O=C(Nc1ccc(-c2noc(COc3ccccc3Cl)n2)cc1)c1ccco1,"inconclusive [inhibitor, full curve]",
COc1ccc(OC)c2sc(NC(=O)c3ccc(S(=O)(=O)N4CCCC4)cc3)nc12,,inactive: -16.5%
CC(c1ccccc1)n1c(-c2ccncc2)n[nH]c1=S (stereo unspecified),,inactive: 6.95%
COC(=O)c1cc2cc(NS(=O)(=O)c3ccc(C)cc3)ccc2s1,"inconclusive [inhibitor, partial curve]",
O=C(/C=C/c1ccccc1)N1CCC(c2ccccc2)C1 (stereo unspecified),,inactive: 0.112%
Cc1ccc(NC(=O)CSc2nnnn2-c2ccc3c(c2)OCO3)cc1C,"inconclusive [inhibitor, partial curve]",
CCOC(=O)Cc1csc(NC(=O)c2cccc(OC)c2)n1,,inactive: 1.28%
COc1ccc(NC(=O)c2ccc(-c3nc(CSc4ccc(C)cc4)c(C)o3)cc2)cc1Cl,"inconclusive [inhibitor, single point]",
Cc1nc2cc(-c3ccc(Cl)cc3)nn2c(C)c1CCC(=O)NC(C)c1ccc2c(c1)OCCO2 (stereo unspecified),"inconclusive [activator, single point]",
Cc1ccc(C(=O)NC(C#N)=C(Cl)Cl)cc1,"inconclusive [inhibitor, partial curve, poor fit]",
O=C(Nc1ccc(Cl)cc1)Nc1cc([N+](=O)[O-])ccc1F,"inconclusive [inhibitor, partial curve]",
CCC(=O)NNc1nc2c(C)cccc2s1,,inactive: -1.44%
Cc1nn(C)c(C)c1NC(=O)CSc1nc(-c2ccccc2Cl)nc2c1cnn2-c1ccccc1,"inconclusive [inhibitor, full curve, poor fit]",
Clc1ccc(-c2nc3cnccn3c2Nc2ccc3c(c2)OCO3)cc1,"inconclusive [activator, partial curve]",
Cc1ccc(-c2c(C#N)c(N)n3c(nc4ccccc43)c2C#N)cc1,"inconclusive [inhibitor, partial curve]",
COc1cccc(NC(=O)/C=C\c2ccc(Cl)cc2)c1,"inconclusive [inhibitor, single point]",
S=C(Nc1ccccc1Oc1ccccc1)Nc1cccc(Cl)c1Cl,,inactive: -6.2%
Cc1cc(/C=C2\SC(=S)NC2=O)c(C)n1C,,inactive: 2.52%
